# From the supplement of paper PMC8728848
# Some of the results follow.
# B1: GS13686A-pdi-553-26-553 (Parabacteroides distasonis) (protein)
# chain: NENPDKPTDDVNYNMNEPRLASTLRGGLIIEGNVEQRLKPLQIDFYSQMTVDGGGWGTKNYIQDDEWNNLVWEEYLKQIASINIVIRSLTEKDKDAYANTIAFARIWRVYVHTLAADKFGPMPFPAYEIVEANPPYKSLKDIYDEYFRELDAAINGFNDSAQPIFSDAGIDLIYKNDVSKWKRFANSLRLRLAVRLTEVDQEKCIAEANAAISSPAGLISDKADNAYMPPKADGSWGQDYNYTMFQITWSGPICMSKSVEKLVTNIGGVAWPQGVVNQTSGVAVSSVHPEKVDPRAPKIFQPGIENGDWKGLVYGPKAEEANTGIYQSKQCAELGFIIKDGYPYKSRPYDLFLSEEVHFLKAELYARGFIAGDAKSEYEAGVRASFATWGVTSEVDDYLTSTEKNEAGTSARYDDQQGAGNTALEKIITQKYIAGIPDLAQEGWNDKRRLNLPRLDVAVYRDQAVYNNNDKDILKSANFIKRMRYPTKESLINATEYEKGKSMLGGKGDIVSTPLWWDKNSNYCTSSK
# Experiments:
# Experiment in all cases: glycan array binding signal (z-score within array); higher = stronger binding
# Conditions in all cases: glycan notation: IUPAC condensed, linker removed
# [1] = target: Fuc(a1-2)Gal6S(b1-3)GlcNAc6S
# Method in brief: (§1)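 The binding signal is a Z-score computed within each array. Data were drawn from 3228 arrays in the Consortium for Functional Glycomics database, restricted to those with a known protein sequence. Scores were averaged over arrays of the same protein sequence at different concentrations or buffers, and over linkers, and negative values can be taken as non-binding.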
# Fuc(a1-2)Gal6S(b1-4)Glc = target: Fuc(a1-2)Gal6S(b1-4)Glc
# Method in brief: as §1
# [2] = target: Fuc(a1-2)Gal6S(b1-4)Glc6S
# Method in brief: as §1
# Fuc(a1-2)[Gal(a1-3)]Gal = target: Fuc(a1-2)[Gal(a1-3)]Gal
# Method in brief: as §1
# [3] = target: Fuc(a1-2)[Gal(a1-3)]Gal(b1-3)GalNAc
# Method in brief: as §1
# [4] = target: Fuc(a1-2)[Gal(a1-3)]Gal(b1-3)GalNAc(b1-3)Gal(a1-4)Gal(b1-4)Glc
# Method in brief: as §1
# [5] = target: Fuc(a1-2)[Gal(a1-3)]Gal(b1-3)GlcNAc
# Method in brief: as §1
# [6] = target: Fuc(a1-2)[Gal(a1-3)]Gal(b1-3)GlcNAc(b1-2)Man(a1-3)[Fuc(a1-2)[Gal(a1-3)]Gal(b1-3)GlcNAc(b1-2)Man(a1-6)]Man(b1-4)GlcNAc(b1-4)GlcNAc
# Method in brief: as §1
# [7] = target: Fuc(a1-2)[Gal(a1-3)]Gal(b1-3)GlcNAc(b1-2)Man(a1-3)[Fuc(a1-2)[Gal(a1-3)]Gal(b1-3)GlcNAc(b1-2)Man(a1-6)]Man(b1-4)GlcNAc(b1-4)[Fuc(a1-6)]GlcNAc
# Method in brief: as §1
# [8] = target: Fuc(a1-2)[Gal(a1-3)]Gal(b1-3)GlcNAc(b1-3)GalNAc
# Method in brief: as §1
# [9] = target: Fuc(a1-2)[Gal(a1-3)]Gal(b1-3)GlcNAc(b1-6)GalNAc
# Method in brief: as §1
# [10] = target: Fuc(a1-2)[Gal(a1-3)]Gal(b1-4)Glc
# Method in brief: as §1
# [11] = target: Fuc(a1-2)[Gal(a1-3)]Gal(b1-4)GlcNAc
# Method in brief: as §1
# [12] = target: Fuc(a1-2)[Gal(a1-3)]Gal(b1-4)GlcNAc(b1-2)Man
# Method in brief: as §1
# [13] = target: Fuc(a1-2)[Gal(a1-3)]Gal(b1-4)GlcNAc(b1-2)Man(a1-3)[Fuc(a1-2)[Gal(a1-3)]Gal(b1-4)GlcNAc(b1-2)Man(a1-6)]Man(b1-4)GlcNAc(b1-4)GlcNAc
# Method in brief: as §1
# [14] = target: Fuc(a1-2)[Gal(a1-3)]Gal(b1-4)GlcNAc(b1-2)Man(a1-3)[Fuc(a1-2)[Gal(a1-3)]Gal(b1-4)GlcNAc(b1-2)Man(a1-6)]Man(b1-4)GlcNAc(b1-4)[Fuc(a1-6)]GlcNAc
# Method in brief: as §1
# [15] = target: Fuc(a1-2)[Gal(a1-3)]Gal(b1-4)GlcNAc(b1-3)GalNAc
# Method in brief: as §1
# [16] = target: Fuc(a1-2)[Gal(a1-3)]Gal(b1-4)GlcNAc(b1-3)[Fuc(a1-2)[Gal(a1-3)]Gal(b1-4)GlcNAc(b1-6)]GalNAc
# Method in brief: as §1
# [17] = target: Fuc(a1-2)[Gal(a1-3)]Gal(b1-4)GlcNAc(b1-6)GalNAc
# Method in brief: as §1
# [18] = target: Fuc(a1-2)[Gal(a1-3)]Gal(b1-4)[Fuc(a1-3)]Glc
# Method in brief: as §1
# [19] = target: Fuc(a1-2)[Gal(a1-3)]Gal(b1-4)[Fuc(a1-3)]GlcNAc
# Method in brief: as §1
# [20] = target: Fuc(a1-2)[Gal(a1-3)]Gal(b1-4)[Fuc(a1-3)]GlcNAc(b1-3)GalNAc
# Method in brief: as §1
# [21] = target: Fuc(a1-2)[Gal(a1-4)]Gal(b1-4)GlcNAc
# Method in brief: as §1
# [22] = target: Fuc(a1-2)[GalNAc(a1-3)]Gal
# Method in brief: as §1
# [23] = target: Fuc(a1-2)[GalNAc(a1-3)]Gal(b1-3)GalNAc(a1-3)[Fuc(a1-2)]Gal(b1-4)GlcNAc
# Method in brief: as §1
# [24] = target: Fuc(a1-2)[GalNAc(a1-3)]Gal(b1-3)GalNAc(b1-3)Gal(a1-4)Gal(b1-4)Glc
# Method in brief: as §1
# [25] = target: Fuc(a1-2)[GalNAc(a1-3)]Gal(b1-3)GlcNAc
# Method in brief: as §1
# [26] = target: Fuc(a1-2)[GalNAc(a1-3)]Gal(b1-3)GlcNAc(b1-2)Man(a1-3)[Fuc(a1-2)[GalNAc(a1-3)]Gal(b1-3)GlcNAc(b1-2)Man(a1-6)]Man(b1-4)GlcNAc(b1-4)GlcNAc
# Method in brief: as §1
# [27] = target: Fuc(a1-2)[GalNAc(a1-3)]Gal(b1-3)GlcNAc(b1-2)Man(a1-3)[Fuc(a1-2)[GalNAc(a1-3)]Gal(b1-3)GlcNAc(b1-2)Man(a1-6)]Man(b1-4)GlcNAc(b1-4)[Fuc(a1-6)]GlcNAc
# Method in brief: as §1
# [28] = target: Fuc(a1-2)[GalNAc(a1-3)]Gal(b1-3)GlcNAc(b1-3)GalNAc
# Method in brief: as §1
# [29] = target: Fuc(a1-2)[GalNAc(a1-3)]Gal(b1-3)GlcNAc(b1-6)GalNAc
# Method in brief: as §1
# [30] = target: Fuc(a1-2)[GalNAc(a1-3)]Gal(b1-4)Glc
# Method in brief: as §1
# [31] = target: Fuc(a1-2)[GalNAc(a1-3)]Gal(b1-4)GlcNAc
# Method in brief: as §1
# [32] = target: Fuc(a1-2)[GalNAc(a1-3)]Gal(b1-4)GlcNAc(b1-2)Man
# Method in brief: as §1
# [33] = target: Fuc(a1-2)[GalNAc(a1-3)]Gal(b1-4)GlcNAc(b1-2)Man(a1-3)[Fuc(a1-2)[GalNAc(a1-3)]Gal(b1-4)GlcNAc(b1-2)Man(a1-6)]Man(b1-4)GlcNAc(b1-4)GlcNAc
# Method in brief: as §1
# [34] = target: Fuc(a1-2)[GalNAc(a1-3)]Gal(b1-4)GlcNAc(b1-2)Man(a1-3)[Fuc(a1-2)[GalNAc(a1-3)]Gal(b1-4)GlcNAc(b1-2)Man(a1-6)]Man(b1-4)GlcNAc(b1-4)[Fuc(a1-6)]GlcNAc
# Method in brief: as §1
# [35] = target: Fuc(a1-2)[GalNAc(a1-3)]Gal(b1-4)GlcNAc(b1-3)Gal(b1-4)GlcNAc
# Method in brief: as §1
# [36] = target: Fuc(a1-2)[GalNAc(a1-3)]Gal(b1-4)GlcNAc(b1-3)Gal(b1-4)GlcNAc(b1-3)Gal(b1-4)GlcNAc
# Method in brief: as §1
# [37] = target: Fuc(a1-2)[GalNAc(a1-3)]Gal(b1-4)GlcNAc(b1-3)GalNAc
# Method in brief: as §1
# [38] = target: Fuc(a1-2)[GalNAc(a1-3)]Gal(b1-4)GlcNAc(b1-3)[Fuc(a1-2)[GalNAc(a1-3)]Gal(b1-4)GlcNAc(b1-6)]GalNAc
# Method in brief: as §1
# [39] = target: Fuc(a1-2)[GalNAc(a1-3)]Gal(b1-4)GlcNAc(b1-6)GalNAc
# Method in brief: as §1
# [40] = target: Fuc(a1-2)[GalNAc(a1-3)]Gal(b1-4)[Fuc(a1-3)]GlcNAc
# Method in brief: as §1
# [41] = target: Fuc(a1-2)[GalNAc(a1-3)]Gal(b1-4)[Fuc(a1-3)]GlcNAc(b1-3)GalNAc
# Method in brief: as §1
# [42] = target: Fuc(a1-2)[GalNAc(a1-4)]Gal(b1-4)GlcNAc
# Method in brief: as §1
# [43] = target: Fuc(a1-2)[GalNAc(b1-3)]Gal
# Method in brief: as §1
binder,measurement,setting,value
B1,glycan array binding signal (z-score),[1],-0.138
same,glycan array binding signal (z-score),Fuc(a1-2)Gal6S(b1-4)Glc,-0.226
same,glycan array binding signal (z-score),[2],0.08
same,glycan array binding signal (z-score),Fuc(a1-2)[Gal(a1-3)]Gal,-0.204
same,glycan array binding signal (z-score),[3],0.325
same,glycan array binding signal (z-score),[4],-0.231
same,glycan array binding signal (z-score),[5],-0.036
same,glycan array binding signal (z-score),[6],-0.301
same,glycan array binding signal (z-score),[7],0.02
same,glycan array binding signal (z-score),[8],-0.226
same,glycan array binding signal (z-score),[9],-0.026
same,glycan array binding signal (z-score),[10],-0.096
same,glycan array binding signal (z-score),[11],-0.38
same,glycan array binding signal (z-score),[12],-0.139
same,glycan array binding signal (z-score),[13],-0.189
same,glycan array binding signal (z-score),[14],-0.233
same,glycan array binding signal (z-score),[15],-0.353
same,glycan array binding signal (z-score),[16],0.003
same,glycan array binding signal (z-score),[17],0.081
same,glycan array binding signal (z-score),[18],0.037
same,glycan array binding signal (z-score),[19],-0.347
same,glycan array binding signal (z-score),[20],0.174
same,glycan array binding signal (z-score),[21],-0.209
same,glycan array binding signal (z-score),[22],-0.041
same,glycan array binding signal (z-score),[23],0.035
same,glycan array binding signal (z-score),[24],-0.124
same,glycan array binding signal (z-score),[25],-0.072
same,glycan array binding signal (z-score),[26],-0.366
same,glycan array binding signal (z-score),[27],0.253
same,glycan array binding signal (z-score),[28],-0.229
same,glycan array binding signal (z-score),[29],-0.199
same,glycan array binding signal (z-score),[30],0.119
same,glycan array binding signal (z-score),[31],-0.367
same,glycan array binding signal (z-score),[32],-0.355
same,glycan array binding signal (z-score),[33],-0.158
same,glycan array binding signal (z-score),[34],0.023
same,glycan array binding signal (z-score),[35],0.224
same,glycan array binding signal (z-score),[36],0.041
same,glycan array binding signal (z-score),[37],-0.083
same,glycan array binding signal (z-score),[38],-0.165
same,glycan array binding signal (z-score),[39],-0.281
same,glycan array binding signal (z-score),[40],-0.306
same,glycan array binding signal (z-score),[41],0.287
same,glycan array binding signal (z-score),[42],1.95
same,glycan array binding signal (z-score),[43],0.038
